# The supplement of paper PMC9174493
# Some of the results follow. Single values of this set are uncertain. Values with irradiation are relative to irradiated vehicle.
# Assays:
# A549-Dual [1] = test: NF-kB reporter (SEAP) activity, viability-corrected, relative to vehicle (fold change vs vehicle); higher = more activation of STING-IRF / NF-kB immune response reporter
# A549-Dual [2] = test: ISRE reporter (Lucia luciferase) activity, viability-corrected, relative to vehicle (fold change vs vehicle); higher = more activation of STING-IRF / NF-kB immune response reporter
# 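Wherever NF-kB reporter (SEAP) activity, viability-corrected, relative to vehicle is given: viability correction based on the alamar blue assay, with concentrations leaving 10% survival or less dropped.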
SMILES,"NF-kB reporter (A549-Dual [1]; 0.1 µM, irradiation: 8 Gy/4 fr)","NF-kB reporter (A549-Dual [1]; 0.1 µM, irradiation: none)","NF-kB reporter (A549-Dual [1]; 0.3 µM, irradiation: 8 Gy/4 fr)","NF-kB reporter (A549-Dual [1]; 0.3 µM, irradiation: none)","NF-kB reporter (A549-Dual [1]; 1 µM, irradiation: 8 Gy/4 fr)","NF-kB reporter (A549-Dual [1]; 1 µM, irradiation: none)","NF-kB reporter (A549-Dual [1]; 3 µM, irradiation: 8 Gy/4 fr)","NF-kB reporter (A549-Dual [1]; 3 µM, irradiation: none)","NF-kB reporter (A549-Dual [1]; 10 µM, irradiation: 8 Gy/4 fr)","NF-kB reporter (A549-Dual [1]; 10 µM, irradiation: none)","ISRE reporter (A549-Dual [2]; 0.1 µM, irradiation: 8 Gy/4 fr)","ISRE reporter (A549-Dual [2]; 0.1 µM, irradiation: none)","ISRE reporter (A549-Dual [2]; 0.3 µM, irradiation: 8 Gy/4 fr)","ISRE reporter (A549-Dual [2]; 0.3 µM, irradiation: none)","ISRE reporter (A549-Dual [2]; 1 µM, irradiation: 8 Gy/4 fr)","ISRE reporter (A549-Dual [2]; 1 µM, irradiation: none)","ISRE reporter (A549-Dual [2]; 3 µM, irradiation: 8 Gy/4 fr)","ISRE reporter (A549-Dual [2]; 3 µM, irradiation: none)","ISRE reporter (A549-Dual [2]; 10 µM, irradiation: 8 Gy/4 fr)","ISRE reporter (A549-Dual [2]; 10 µM, irradiation: none)"
Cc1c(-c2ccc(-c3ccccc3F)cc2)nc2ccc(F)cc2c1C(=O)O [Brequinar],1.07,1,0.68,0.958,0.837,1.32,0.728,1.38,0.884,1.25,0.96,0.924,0.753,1.24,0.838,2,0.757,1.34,0.927,1.78
CC/C(=C(/CC)c1ccc(O)cc1)c1ccc(O)cc1 [Diethylstilbestrol],0.99,1.09,1.05,0.968,0.885,1.02,1.08,0.883,1.06,1.04,1.18,1.15,1.11,1.05,0.939,1,1.17,1.07,1.25,1.37
CCCCC1C(=O)N(c2ccccc2)N(c2ccccc2)C1=O [Phenylbutazone],1.11,1.12,1.18,1.08,0.868,1.08,1.07,0.838,1.13,0.907,0.954,0.962,1.44,1.13,0.972,0.915,1.04,0.552,1,0.746
CC1CC2C3CCC4=CC(=O)C=CC4(C)C3C(=O)CC2(C)C1(O)C(=O)CO (stereo not given) [Meprednisone],0.902,1.32,1.1,1.48,1.22,1.06,1.22,1.02,0.844,1.04,0.934,0.875,0.778,1.05,0.642,0.819,0.617,0.89,0.391,0.581
Nc1c(CC(=O)[O-])cccc1C(=O)c1ccc(Br)cc1.[Na+] [Bromfenac Sodium],1.25,1.09,1.01,0.833,1.3,0.975,1.1,0.933,1.07,1.02,1.13,0.837,0.962,0.677,0.686,0.661,0.744,0.917,0.791,0.882
Nc1ccccc1NC(=O)c1ccc(CNC(=O)OCc2cccnc2)cc1 [Entinostat (MS-275)],1.22,1.35,0.997,1.32,0.729,1.09,2.58,1.63,4.12,1.86,0.795,1.13,0.468,0.984,0.203,0.79,0.731,1,0.724,1.27
CC1=NN(c2ccc(C)c(C)c2)C(=O)/C1=N\Nc1cccc(-c2cccc(C(=O)O)c2)c1O.NCCO.NCCO [Eltrombopag Olamine],0.947,1.14,1.02,1.04,0.955,1.34,0.859,1.24,0.925,1.11,0.995,0.895,0.889,0.734,0.887,0.703,0.709,0.536,0.753,0.663
Cc1nnc(C(C)C)n1C1CC2CCC(C1)N2CCC(NC(=O)C1CCC(F)(F)CC1)c1ccccc1 (stereo not given) [Maraviroc],1.02,1.92,1.37,2.15,1.82,1.54,2.04,1.36,1.62,1,1.15,1.53,1.11,1.4,1.13,1.25,1.2,1.44,1.35,0.795
CC(C)OC(=O)CCC/C=C\CC1C(O)CC(O)C1CCC(O)CCc1ccccc1 (stereo not given) [Latanoprost],0.671,0.473,0.56,0.594,0.999,0.5,0.43,0.576,0.385,0.232,0.686,0.719,0.606,0.839,1.03,0.66,0.588,0.594,0.457,0.61
NC(=O)c1cccc2cn(-c3ccc(C4CCCNC4)cc3)nc12 (stereo not given) [Niraparib (MK-4827)],1.03,0.958,0.95,0.957,0.982,1.03,0.87,1.41,0.975,1.28,1.05,0.993,0.975,1.32,1.14,1.49,1.04,3.07,0.948,4.11
CC1(C)CCC(C)(C)c2cc(NC(=O)c3ccc(C(=O)O)cc3)ccc21 [Tamibarotene],1.31,1.23,1.1,1.48,0.998,1.74,1.23,1.35,1.08,1.09,1.31,1.65,1.2,1.59,1.25,1.76,1.22,1.48,1.2,1.54
Cc1ccc(-c2cc(C(F)(F)F)nn2-c2ccc(S(N)(=O)=O)cc2)cc1 [Celecoxib],0.939,1.16,0.778,1.31,1.37,0.963,1.43,1.06,0.69,0.686,0.928,0.833,0.886,1.03,0.887,0.862,0.945,1.03,0.887,1.42
